In the RNAGym collection of RNA variant scans (doi:10.7554/elife.90254):
Read counts are not given, so values of variants with three or more changes are uncertain.

B1: LINE1-mini (parent)
chain: GGCAGAGCUCAACACAGCGUGGCAAAGUGGCUGUGGCUAGACUGCC

Variants of: B1
Test: self-cleavage, relative activity (ratio to wild type); higher = more cleavage; in vitro, sequencing; the parent is a self-cleaving ribozyme

| Variant | self-cleavage |
| --- | --- |
| G7U C10A G27C | 0.04 |
| C8G C13U C46A | 0.1 |
| C3A A14C A39C | 0.33 |
| C18U G22U C31U | 0.06 |
| G5C C18A G30U G33U | 0.01 |
| C3U C10A A12U C15A C18U C45A | 0.02 |
| G21C A25C G27C G35A U43C | 0.03 |
| G1A C15G G36U | 0.03 |
| G29U G35A G36C | 0.51 |
| G5U G21A U38C | 0.04 |
| A6U U9A A11U G40U | 0.02 |
| A14U G17A G40A | 0.03 |
| G5U A11U C15U G30C U43G C45U | 0 |
| G17A C23A A24G | 0.01 |
| A11U A12C G19A C23U A41C C45A | 0 |
| C10U A25G G29A | 0.27 |
| G27C G29A C42U | 0 |
| A6C C8U G21U | 0.41 |
| G2A G5A G22U G40C | 0.47 |
| C3U A25U G35A A41C | 0.03 |
| G29C C31U A39G | 0.05 |
| C15U G33A G35U | 0.03 |
| C10A G30A G33U C42U C46A | 0.02 |
| G1C C3A A4U G5U A41U | 0.05 |

| Variant | self-cleavage |
| --- | --- |
| C18U G27C G29A U38G | 0.02 |
| U9C C15A C46A | 0.02 |
| C10U C45A C46U | 0.08 |
| G29A G30C G33U G35A | 0.02 |
| G1A U20A A26G U43A | 0.03 |
| C3G A6G G22C G33U G44C | 0.02 |
| G19A A39G U43C | 0.06 |
| C13U A14C C15U | 0.17 |
| G27U G35C G40A | 0.14 |
| C10A U38C C46G | 0.15 |
| A6U A16C G17U G21A G22C | 0.2 |
| C10U U32C U43A | 0.04 |
| A4C G5U A39G G40A | 0.06 |
| C15A A25C A26U G33C G35C | 0.04 |
| A12G C15U U20G A24U G40U | 0 |
| C18U G19U G21A U32C | 0.04 |
| A6C G7C G17U U28G C31G | 0.01 |
| A4G G40A G44A | 0.03 |
| C3U G5U G19U A39U | 0.03 |
| G1C G2A C10U | 0.11 |
| G2U A4C U38G G44U | 0.01 |
| A6G G40A U43G | 0.05 |
| G7A A12G C15A C23U G29A C46U | 0.01 |
| C3U U9G A12U G19A U28C U38C G40C C42A | 0.02 |

| Variant | self-cleavage |
| --- | --- |
| A25C G29U U43A | 0.02 |
| A12C C31A G44C | 0.06 |
| U9G C10A C15A U43A | 0.01 |
| C3U C10A A12U U34A G36U | 0.02 |
| A16U G19C G40C | 0.03 |
| C10G A12C C13U | 0.02 |
| G5A A11U C15A C18A G29U | 0.02 |
| A14U G19A U20G | 0.05 |
| G2U A24C A26U G44U | 0.03 |
| G5U A6G G27U G30A | 0.11 |
| G2A C8A G40U | 0.52 |
| A6G A39G G40A | 0.01 |
| G2U G27A U34A | 0.03 |
| G2A C10A G36C U38G | 0.04 |
| G5A A11C A14C G21U C31U | 0.04 |
| G1C G17U A24G G36U | 0.02 |
| C8A A14G C46A | 0.37 |
| U9C C10A C15U G30U G36U C45U | 0.01 |
| A26C G27A C37G A39U | 0 |
| C8A G22C A25U A26U G35U | 0.04 |
| C3A G5U C15A G35U A41U | 0.1 |
| A12U A14G A16G G21C C46G | 0.01 |
| G19C U20A C23U A26U | 0.36 |
| G1A U32A C37U C42U | 0.04 |

| Variant | self-cleavage |
| --- | --- |
| C10U A12U G19U G27C U34C | 0.01 |
| G7A C23U A39U C45A | 0.07 |
| U9G A16G U20C G44A | 0.03 |
| A25U A26C G30C C42A | 0.05 |
| G2A G7C U38G | 0.01 |
| C10G G27A C46U | 0.07 |
| U20A G21U G35A | 0.1 |
| C3U A6C C10U | 0.19 |
| G5C C10A G19A G22A | 0.04 |
| A4U C13A A14U G35U | 0.27 |
| G5U C8A C45G | 0.58 |
| A11U C23U A24C C45A | 0.21 |
| A14C C15G U32G | 0.02 |
| A24G G35U C46A | 0.49 |
| G29U C31A U43A | 0.04 |
| G2C A11U G19U A41C | 0 |
| A4C G17C A24U C31G G40U | 0.06 |
| G19A G27A G29U C31U A39U | 1.06 |
| C23A A24U G35U | 0.13 |
| G2U G22U G29U | 0.05 |
| G1U G30U G40U | 0.04 |
| A4U G17U U32C | 0.03 |
| G7U A14C A26C C42U | 0.03 |
| C3A A6U C8U C10A A12U C18U | 0.03 |

| Variant | self-cleavage |
| --- | --- |
| A4G C31U C45U | 0.03 |
| A4G U9C U20A G21A C42G | 0.01 |
| G7C G22A G35C | 0.07 |
| G5U G33A G35A | 0.08 |
| A11U G22C G40C | 0.01 |
| C3A G7C C13G G29C | 0.12 |
| G7A U9C G21U | 0.14 |
| C3G A4U A24C G44A | 0.04 |
| A6G C10U A11U G30C C31A | 0.03 |
| A26C U28G U32A | 0.07 |
| C10A G21A C23U C31U G44C | 0.01 |
| C18A A41U C45G | 0.03 |
| C18U A26U C31A | 0.07 |
| G21C A26C U28A C37U C42U | 0.01 |
| C15A G19A G33C | 0.03 |
| A12U G17A C45A | 0.05 |
| A6C A11C A16U G29A | 0.01 |
| G1U G21A A24C C31A | 0.17 |
| G21A A26U G29U A39U | 2.81 |
| G30U A41G C45G | 0.01 |
| C8G C23U U28G | 0.02 |
| C10G A14U C31A U38G | 0.01 |
| A24C G27A C37A | 0.01 |
| C23A G30U G35U | 0.04 |

| Variant | self-cleavage |
| --- | --- |
| U9G G19U C46U | 0.27 |
| A16C G19A A41G | 0 |
| G5C A6C C18A G30C A39G G40A | 0 |
| G1C A4C A11C C23A A26C C31U | 0.01 |
| C18U G29C G44A | 0.77 |
| G2A G21U G33A G35C | 0.11 |
| A16G C18U G35C G40C | 0.01 |
| G7C C10U G19A | 0.05 |
| G29C U34A A39U | 0.04 |
| G2A C8G G35C A39U | 0.03 |
| C10G A25G G30A A41U | 0.02 |
| C15A C31U U34A G40A C42U | 0.01 |
| G1C A4U U9G U28G C37G C42A | 0.01 |
| C3A G17A G44A | 0.09 |
| C3A A4C A24G U34G | 0.1 |
| A12C G17A C23G U38C | 0.01 |
| C3G A16G G30C | 0.06 |
| G19A A26G C37A | 0.03 |
| G17U G27A C45U | 0.23 |
| G7C C10A C18G U28A G36C | 0.02 |
| G30C G33U G40A U43C | 0.19 |
| A16G A25C U32G | 0.01 |
| G36A C45U C46G | 0.05 |
| G30C U32C C46U | 0.05 |

| Variant | self-cleavage |
| --- | --- |
| G2A G29U U32A C37U | 0.57 |
| G1A G22C A39U G40U C45G | 0.13 |
| C8G G35A G40U | 0.15 |
| G2U C15G C45G | 0.01 |
| A6U U20G A25U A26U | 0.18 |
| A11C G21C A26U G33A G40A | 0.02 |
| G19U A25C G29A C37G | 0 |
| G29U C31A U43C | 0.02 |
| G2U A6C C31G U32A G36A | 0.01 |
| G21C U32G G36A | 0.05 |
| U9G C15U A16G G33U | 0.08 |
| G2A G27A U28A C42G | 0.02 |
| C15U A16G U32A | 0 |
| G5C C8A G22C | 0.05 |
| C3G U9G A39G | 0.19 |
| C8U C31G G36C | 0.11 |
| C15A A16G G29U | 0.01 |
| G5C A24G U28C G30A G33C | 0.05 |
| A16G G22A C23G | 0.44 |
| G5U U28A U38A | 0.03 |
| U9G A26U G29U | 0.03 |
| C10A C13U C18U A25G G36C C45U | 0.01 |
| A6G G7U C23U G30A | 0.08 |
